Where “and” joins values, the source holds several entries; their conditions need not be identical. Equal values may be shown once. Among all 420,000 compounds or so, about 64,000 (15%) were called active. Inconclusive results, whose numbers are uncertain, are shown with a selection of clear calls. The call rests on the fitted dose curve; in most records, active means well fitted inhibition curve with a large enough effect; inconclusive means small, poorly fitted or top-dose-only effect; inactive means flat fitted curve, though single readings scatter. A potency beside an inconclusive call is a rough fit, not a confirmed value.
Experiment: qHTS for Inhibitors of human tyrosyl-DNA phosphodiesterase 1 (TDP1): qHTS in cells in absence of CPT; further: nearly all actives have a fitted effect of over 55% in size
Details: DT40 Tdp1-/- hTDP1 cells, no CPT, ATP luminescence, 48 h; activity change, negative = growth inhibition: at 46.2 µM (top of the series)
Procedure, shortened: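 Luminescent ATP content (CellTiter-Glo) served as the growth readout. Knockout chicken DT40 cells expressing human TDP1 were exposed to compounds without camptothecin for a minimum 48 hr at 37 °C.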
On the % scale 0 is the no-effect control and ±100 the full control effect; potency means the concentration at half of the fitted maximal effect; tags describe the fitted curve by direction and shape.

| SMILES | Potency | activity change, negative = growth inhibition |
| --- | --- | --- |
| C/C(Cn1nnc([N+](=O)[O-])n1)=N\NC(=O)c1ccc(C)cc1 | active: 14.6 µM | – |
| CCOC(=O)c1c(Nc2cccc(C)c2)nnc(-c2ccccc2)c1-c1ccccc1 | active: 16.4 µM | – |
| O=C(/C=C/c1ccnc2ccccc12)c1cccs1 | active: 13 µM | – |
| CN1CCN(c2ccc(CNC(=O)c3cc4ccccc4o3)cc2)CC1 | inconclusive: 29.1 µM [inhibitor, single point] | – |
| C[C@@H]1CNC(=O)c2c(C(=O)NCc3ccc(CNC(=O)OC(C)(C)C)cc3)ncn21 | active: 20.6 µM | – |
| CN(c1ccccc1)S(=O)(=O)c1ccc(Cl)c(C(=O)NCc2ccco2)c1 | inconclusive: 20.6 µM [inhibitor, single point] | – |
| Cc1ccc(-c2n[nH]c(=S)c3ccccc23)cc1 | inconclusive: 14.6 µM [inhibitor, single point] | – |
| CC(=O)c1ccc(NC(=O)CN2CCC(C(=O)c3ccc4c(c3)OCCO4)CC2)cc1 | inconclusive: 7.31 µM [inhibitor, partial curve] | – |
| Cc1ccccc1N1CCN(C2CCCN(C(=O)c3ccc(Cl)s3)C2)CC1 (stereo unspecified) | inconclusive: 29.1 µM [inhibitor, single point] | – |
| CC(C)CC(c1nnnn1C1CCCCC1)N1CCN(C(=O)c2ccco2)CC1 (stereo unspecified) | inconclusive: 16.4 µM [inhibitor, single point] | – |
| Cc1c(C(=O)N2CCOCC2)sc(NC(=O)c2ccc([N+](=O)[O-])cc2)c1C#N | inconclusive: 16.4 µM [inhibitor, single point] | – |
| O=C(NC1CCCCC1)C(c1ccc(F)cc1)N(C(=O)c1cccs1)c1ccc2c(c1)OCO2 (stereo unspecified) | inconclusive: 20.6 µM [inhibitor, partial curve] | – |
| Cc1cccc(/C=C/C(=O)c2ccc([N+](=O)[O-])o2)c1 | active: 0.651 µM | – |
| Cc1ccc(N2CC(C(=O)N3CCC(C(=O)Nc4nnc(C(C)C)s4)CC3)CC2=O)cc1 (stereo unspecified) | inconclusive: 20.6 µM [inhibitor, partial curve, poor fit] | – |
| O=C(OCCOc1ccccc1Cl)c1cc(S(=O)(=O)N2CCCCC2)ccc1N1CCOCC1 | inconclusive: 29.1 µM [inhibitor, single point] | – |
| Cc1noc(C)c1C(=O)N1CCC2(CCCN(c3ccncc3)C2)CC1 | – | inactive: -4.3% |
| CCc1ccc2occ(CC(=O)N(Cc3ccc(N(C)C)cc3)C3CCS(=O)(=O)C3)c2c1 (stereo unspecified) | inconclusive: 29.1 µM [inhibitor, single point] | – |
| COc1cc(-c2ccno2)ccc1S(=O)(=O)N1CCN(c2ccc(F)cc2)CC1 | active: 7.31 µM | – |
| CCOC(=O)c1cccc(NC(=O)c2sc3nc[nH]c(=O)c3c2C)c1 | inconclusive: 32.6 µM [inhibitor, single point] | – |
| CN1CCN(C2CCN(c3ccc(Nc4nnc(Cl)c(Nc5ccccc5S(C)(=O)=O)n4)c(OC(CF)CF)c3)CC2)CC1 | inconclusive: 29.1 µM [inhibitor, single point] | – |
| COc1cc(C(=O)Nc2ccc(S(=O)(=O)N3CCc4ccccc43)cc2)cc(OC)c1OC | active: 16.4 µM | – |
| O=C(CSc1nc2ccccc2nc1Cc1ccccc1)N1CCCc2ccccc21 | inconclusive: 29.1 µM [inhibitor, single point] | – |

| SMILES | Potency | activity change, negative = growth inhibition |
| --- | --- | --- |
| CCCCN=C(C)c1c(O)c2ccccc2oc1=O | inconclusive: 29.1 µM [inhibitor, single point] | – |
| CCc1cc2c(=O)n(Cc3ccco3)c(SCC(=O)N3CCCc4ccccc43)nc2s1 | inconclusive: 16.4 µM [inhibitor, single point] | – |
| Cc1ccc(CC(=O)Nc2ccc(C(=O)N3CCOCC3)cc2)cc1 | – | inactive: -3.67% |
| Cc1oc(-c2ccc(Cl)cc2)nc1CN1CCCC(C(=O)NCc2ccco2)C1 (stereo unspecified) | active: 23.1 µM | – |
| CC1CCN(C(=S)NC(=O)C2CCCCC2)CC1 | – | inconclusive: -30% [inhibitor] |
| CC(C)(C)NC(=O)COC(=O)c1ccccc1OCC(=O)Nc1ccc(Br)cc1 | – | inactive: -26.8% |
| CC(C)(C)CC(C)(C)NC(=S)N1CCN(Cc2ccc3c(c2)OCO3)CC1 | – | inactive: -1.47% |
| Cc1cccc(N(C)S(=O)(=O)c2nnc(NC(=O)C3CCCCC3)s2)c1 | inconclusive: 14.6 µM [inhibitor, partial curve] | – |
| CN(CC(=O)Nc1ccccc1Cl)C(=O)CN1C(=O)C2CC=CCC2C1=O (stereo unspecified) | – | inactive: 0.418% |
| COc1ccccc1NS(=O)(=O)c1ccc(C)c(C(=O)NCC2(N(C)C)CCCCC2)c1 | – | inactive: 1.73% |
| COc1cccc(-c2cc3nc(-c4ccccc4)cc(N4CCCC(O)C4)n3n2)c1 (stereo unspecified) | inconclusive: 29.1 µM [inhibitor, single point] | – |
| CCOC(=O)N1CCC(NC(=O)c2ccc3c(c2)N(Cc2ccc(Cl)cc2)C(=O)c2ccccc2S3=O)CC1 (stereo unspecified) | active: 23.1 µM | – |
| Cc1cc(C)cc(NC(=O)c2cccc(NC(=O)c3ccco3)c2)c1 | active: 29.1 µM | – |
| O=C(NC1CCCCC1)c1ccc2c(c1)N(Cc1cccc(Cl)c1)C(=O)c1ccccc1S2=O (stereo unspecified) | inconclusive: 9.2 µM [inhibitor, partial curve] | – |
| S=c1[nH]cc(Oc2ccc(Cl)cc2Cl)c(=S)[nH]1 | inconclusive: 29.1 µM [inhibitor, single point] | – |
| COc1c(C)cccc1C(=O)Nc1cc(-c2nn3c(C)nnc3s2)ccc1C | inconclusive: 18.4 µM [inhibitor, single point] | – |
| CCN(Cc1ccccc1)C(=O)CCS(=O)(=O)c1ccc2c(c1)CCN2C(C)=O | inconclusive: 5.8 µM [inhibitor, partial curve] | – |
| Cn1cnnc1SCC(=O)N/N=C/c1ccc(OCC(N)=O)cc1 | – | inactive: 2.46% |
| CCN(CC)CCN(C(=O)CCS(=O)(=O)c1ccccc1)c1nc2cc(C)cc(C)c2s1 | inconclusive: 18.4 µM [inhibitor, single point] | – |
| COC(=O)c1ccc(N2CCN(C)CC2)c(NC(=O)COc2ccccc2Cl)c1 | active: 23.1 µM | – |
| CCOC(=O)C1(Cc2ccccc2C)CCCN(C(=O)c2ccc(COC)o2)C1 (stereo unspecified) | inconclusive: 32.6 µM [inhibitor, partial curve, poor fit] | – |
| Cc1cccc(NS(=O)(=O)c2cccc(C(=O)NCC(c3ccco3)N3CCCCC3)c2)c1 (stereo unspecified) | active: 23.1 µM | – |

| SMILES | Potency | activity change, negative = growth inhibition |
| --- | --- | --- |
| Brc1ccccc1-c1nnc(SCc2nc3ccccc3s2)o1 | inconclusive: 14.6 µM [inhibitor, partial curve, poor fit] | – |
| CCOC(=O)C1CCN(C(c2cc3c(C)ccc(C)c3[nH]c2=O)c2nnnn2C2CCCCC2)CC1 (stereo unspecified) | inconclusive: 35.5 µM [inhibitor, single point] | – |
| COc1ccc(CN2CCCC(c3nc(C)ncc3-c3ccc(F)cc3)C2)c(OC)c1OC (stereo unspecified) | inconclusive: 16.4 µM [inhibitor, single point] | – |
| Cn1c(O)c(N=NC(=O)c2ccco2)c2ccccc21 | active: 14.6 µM | – |
| COC(=O)C1=C(C)N(CC2CC2)C(=NCCN2CCOCC2)N[C@H]1c1ccccc1 | inconclusive: 29.1 µM [inhibitor, single point] | – |
| Cc1ccnc(SCC(N)=O)n1 | inconclusive: 25.9 µM [inhibitor, partial curve, poor fit] | – |
| COc1ccc(NC(=S)NCCc2ccccc2OC)c(OC)c1 | inconclusive: 23.1 µM [inhibitor, single point] | – |
| CC(C)N1CCN(Cc2cc3ccccc3[nH]2)CC1CCO (stereo unspecified) | – | inactive: -7.49% |
| Cc1c(C(c2cc(O)ccc2O)c2c(C)n(C)n(-c3ccccc3)c2=O)c(=O)n(-c2ccccc2)n1C | – | inconclusive: -33.5% [inhibitor] |
| O=S1(=O)C=C(N2CCOCC2)c2ccccc21 | inconclusive: 23.1 µM [inhibitor, partial curve] | – |
| O=C(CN1C(=O)CCOc2ccccc21)Nc1ccc(Cl)c(S(=O)(=O)N2CCOCC2)c1 | inconclusive: 29.1 µM [inhibitor, single point] | – |
| COc1cc(C(=O)NC2(C(F)(F)F)NC(=O)N(CCCc3ccccc3)C2=O)cc(OC)c1OC (stereo unspecified) | inconclusive: 13 µM [inhibitor, partial curve] | – |
| COc1cc(C(=O)OCC(=O)Nc2ccc(C)cc2)cc(OC)c1OC | inconclusive: 14.6 µM [inhibitor, partial curve] | – |
| CCc1nc2ccccc2n1Cc1ccccc1F | inconclusive: 14.6 µM [inhibitor, partial curve] | – |
| CCc1ccc(NC(=O)C2CCN(S(=O)(=O)c3ccc4c(c3)NC(=O)C(C)S4)CC2)cc1 (stereo unspecified) | inconclusive: 29.1 µM [inhibitor, single point] | – |
| COc1ccc(O)c(C(=O)c2cnc3c(c2)c(-c2ccc(F)cc2)c(C#N)c(=O)n3C)c1 | inconclusive: 25.9 µM [inhibitor, partial curve, poor fit] | – |
| Cc1cc(C(=O)Nc2sc3c(c2C#N)CCCC3)no1 | inconclusive: 18.4 µM [inhibitor, partial curve] | – |
| CCc1ccc(-c2nc(CSCC(=O)NCc3ccc(C)cc3)c(C)o2)cc1 | inconclusive: 18.4 µM [inhibitor, single point] | – |
| COc1ccc(CN2CCN(S(=O)(=O)c3ccc(NC(C)=O)cc3)CC2)c(OC)c1OC | inconclusive: 16.4 µM [inhibitor, single point] and inconclusive: 7.31 µM [inhibitor, partial curve, poor fit] | – |
| O=C(NC1CCCCC1)c1ccc(Br)o1 | – | inactive: -0.723% |
| O=C1CC(N2CCN(c3ccc(S(=O)(=O)N4CCOCC4)cc3)CC2)C(=O)N1Cc1ccccc1 (stereo unspecified) | – | inconclusive: -33% [inhibitor] |
| CN(CC(=O)Nc1ccc(F)cc1)CC(=O)Nc1ccc(Cl)c(S(=O)(=O)N2CCOCC2)c1 | inconclusive: 20.6 µM [inhibitor, single point] | – |

Source: PubChem BioAssay AID686978 (National Center for Advancing Translational Sciences (NCATS), 2013)
